Assay results as given in article PMC12115464.
No constants are given. Whether binding was seen depends on the method and setting. Binding seen in cells or lysates may run through a third protein. Some results given as binding are weak or reduced against the parent protein; the word gives no strength.

The chains behind the UniProt entries cited, without tags or fusion partners.
UniProt P03430: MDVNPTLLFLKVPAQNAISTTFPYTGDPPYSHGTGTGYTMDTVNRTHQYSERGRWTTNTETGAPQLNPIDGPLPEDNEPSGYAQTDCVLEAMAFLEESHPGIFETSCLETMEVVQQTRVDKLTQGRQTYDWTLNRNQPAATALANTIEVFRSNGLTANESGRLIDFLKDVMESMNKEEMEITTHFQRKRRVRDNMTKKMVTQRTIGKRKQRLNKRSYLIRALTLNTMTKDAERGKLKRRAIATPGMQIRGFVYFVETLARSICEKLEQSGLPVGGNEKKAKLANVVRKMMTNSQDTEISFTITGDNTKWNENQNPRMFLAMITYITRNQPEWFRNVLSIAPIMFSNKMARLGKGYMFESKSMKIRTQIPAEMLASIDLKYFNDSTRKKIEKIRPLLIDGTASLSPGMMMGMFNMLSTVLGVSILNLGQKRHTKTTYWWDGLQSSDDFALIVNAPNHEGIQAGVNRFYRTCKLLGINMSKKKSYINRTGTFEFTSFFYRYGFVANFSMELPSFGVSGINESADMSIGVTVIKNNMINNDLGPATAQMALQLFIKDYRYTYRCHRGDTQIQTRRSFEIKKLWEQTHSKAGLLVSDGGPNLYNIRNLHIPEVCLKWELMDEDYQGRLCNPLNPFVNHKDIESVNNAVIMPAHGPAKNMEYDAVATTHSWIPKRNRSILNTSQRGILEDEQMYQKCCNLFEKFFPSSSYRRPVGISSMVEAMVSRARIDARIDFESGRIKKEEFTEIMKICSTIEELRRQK
UniProt P15682: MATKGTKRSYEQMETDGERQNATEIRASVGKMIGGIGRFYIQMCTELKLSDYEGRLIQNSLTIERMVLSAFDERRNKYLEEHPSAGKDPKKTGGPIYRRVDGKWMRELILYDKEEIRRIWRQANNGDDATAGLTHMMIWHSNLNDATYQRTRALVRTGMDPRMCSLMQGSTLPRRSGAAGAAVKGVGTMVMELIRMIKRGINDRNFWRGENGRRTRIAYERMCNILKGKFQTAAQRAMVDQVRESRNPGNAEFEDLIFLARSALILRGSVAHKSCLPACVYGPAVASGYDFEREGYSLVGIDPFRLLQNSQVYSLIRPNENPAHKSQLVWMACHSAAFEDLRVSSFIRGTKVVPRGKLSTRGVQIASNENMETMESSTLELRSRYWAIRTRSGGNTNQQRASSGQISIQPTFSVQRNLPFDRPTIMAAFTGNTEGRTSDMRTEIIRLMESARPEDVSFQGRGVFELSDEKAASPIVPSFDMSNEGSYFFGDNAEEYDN
UniProt P03427: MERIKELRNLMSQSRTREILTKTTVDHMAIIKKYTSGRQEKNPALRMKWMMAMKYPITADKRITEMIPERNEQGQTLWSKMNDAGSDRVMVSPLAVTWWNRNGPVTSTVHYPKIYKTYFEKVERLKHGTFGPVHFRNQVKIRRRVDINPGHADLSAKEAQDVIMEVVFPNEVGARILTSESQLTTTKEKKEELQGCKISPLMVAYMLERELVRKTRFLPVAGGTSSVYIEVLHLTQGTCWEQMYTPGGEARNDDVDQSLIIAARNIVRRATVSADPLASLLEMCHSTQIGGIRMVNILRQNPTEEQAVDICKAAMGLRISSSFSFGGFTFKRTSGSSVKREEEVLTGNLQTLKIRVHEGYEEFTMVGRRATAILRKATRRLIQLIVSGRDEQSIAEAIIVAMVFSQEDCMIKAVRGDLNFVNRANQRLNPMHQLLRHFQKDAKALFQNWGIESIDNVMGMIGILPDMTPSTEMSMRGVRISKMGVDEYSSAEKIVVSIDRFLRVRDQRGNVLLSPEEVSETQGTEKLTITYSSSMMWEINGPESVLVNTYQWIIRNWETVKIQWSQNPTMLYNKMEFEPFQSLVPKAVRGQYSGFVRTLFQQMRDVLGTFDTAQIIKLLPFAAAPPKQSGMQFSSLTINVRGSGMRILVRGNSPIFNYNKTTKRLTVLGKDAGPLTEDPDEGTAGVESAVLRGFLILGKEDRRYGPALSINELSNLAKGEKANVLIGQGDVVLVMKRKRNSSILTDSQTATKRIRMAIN
UniProt P52294: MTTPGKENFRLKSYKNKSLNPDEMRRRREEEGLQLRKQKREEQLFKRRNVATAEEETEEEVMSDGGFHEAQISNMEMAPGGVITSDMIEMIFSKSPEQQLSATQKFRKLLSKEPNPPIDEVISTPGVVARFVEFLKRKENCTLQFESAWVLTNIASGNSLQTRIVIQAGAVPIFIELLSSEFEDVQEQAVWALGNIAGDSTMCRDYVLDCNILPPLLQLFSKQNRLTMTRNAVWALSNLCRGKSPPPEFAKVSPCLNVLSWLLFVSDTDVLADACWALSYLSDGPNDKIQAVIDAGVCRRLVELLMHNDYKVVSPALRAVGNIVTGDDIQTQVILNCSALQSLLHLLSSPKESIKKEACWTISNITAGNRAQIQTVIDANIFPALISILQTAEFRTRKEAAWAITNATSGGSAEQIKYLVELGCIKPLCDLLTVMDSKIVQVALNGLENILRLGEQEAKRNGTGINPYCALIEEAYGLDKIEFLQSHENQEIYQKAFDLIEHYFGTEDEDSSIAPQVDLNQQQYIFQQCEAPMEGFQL
UniProt O00629: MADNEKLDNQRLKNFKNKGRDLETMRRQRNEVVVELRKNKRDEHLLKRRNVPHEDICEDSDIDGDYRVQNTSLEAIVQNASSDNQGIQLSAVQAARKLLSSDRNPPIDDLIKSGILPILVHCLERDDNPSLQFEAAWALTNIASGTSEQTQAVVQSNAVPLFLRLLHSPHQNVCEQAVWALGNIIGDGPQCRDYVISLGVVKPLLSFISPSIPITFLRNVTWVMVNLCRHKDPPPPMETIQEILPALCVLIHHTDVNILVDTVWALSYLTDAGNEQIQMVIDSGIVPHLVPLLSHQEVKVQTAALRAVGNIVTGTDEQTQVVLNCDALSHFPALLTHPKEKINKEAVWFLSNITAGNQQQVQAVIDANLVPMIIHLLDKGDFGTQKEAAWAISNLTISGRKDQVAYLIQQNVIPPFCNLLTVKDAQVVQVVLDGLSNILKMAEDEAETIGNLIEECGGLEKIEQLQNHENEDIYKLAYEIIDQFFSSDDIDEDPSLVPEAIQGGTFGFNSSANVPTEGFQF
UniProt P02538: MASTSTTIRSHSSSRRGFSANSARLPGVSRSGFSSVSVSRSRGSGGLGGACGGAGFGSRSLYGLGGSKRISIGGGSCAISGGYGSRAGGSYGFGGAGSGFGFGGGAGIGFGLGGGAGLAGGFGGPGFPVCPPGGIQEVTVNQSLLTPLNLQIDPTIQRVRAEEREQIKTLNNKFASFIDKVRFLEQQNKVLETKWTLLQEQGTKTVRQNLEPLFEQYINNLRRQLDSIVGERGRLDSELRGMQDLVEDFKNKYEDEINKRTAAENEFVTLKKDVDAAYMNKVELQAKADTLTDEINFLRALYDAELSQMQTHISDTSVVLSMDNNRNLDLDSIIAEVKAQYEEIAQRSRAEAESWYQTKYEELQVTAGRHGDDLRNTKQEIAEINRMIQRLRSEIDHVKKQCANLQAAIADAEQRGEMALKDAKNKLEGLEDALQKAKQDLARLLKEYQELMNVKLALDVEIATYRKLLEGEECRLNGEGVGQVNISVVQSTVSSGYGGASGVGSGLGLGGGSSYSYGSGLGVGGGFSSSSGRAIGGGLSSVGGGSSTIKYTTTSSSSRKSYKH

How the values were obtained:
[1] = molecular target: polymerase basic protein 1 (PB1) of A/WSN/1933 (H1N1) virus, untagged, from pCAGGS (influenza A virus A/WSN/1933 (WSN, H1N1)) (UniProt P03430); experiment: co-IP
[2] = molecular target: nucleoprotein (NP) of A/WSN/1933 (H1N1) virus, untagged, from pCAGGS (influenza A virus A/WSN/1933 (WSN, H1N1)) (UniProt P15682); experiment: co-IP
[3] = molecular target: polymerase basic protein 2 (PB2) of A/WSN/1933 (H1N1) virus, untagged, from pCAGGS (influenza A virus A/WSN/1933 (WSN, H1N1)) (UniProt P03427); experiment: co-IP
Flag-tagged importin α5 [4] = molecular target: Flag-tagged importin α5 (UniProt P52294); experiment: co-IP; HEK293T transfected with Myc-KRT6A and Flag-tagged importin α1, α3, α5 or α7, individually or in combination; lysates immunoprecipitated with mouse anti-Flag mAb; blot with rabbit anti-Flag or anti-KRT6A pAb
Flag-tagged importin α3 [5] = molecular target: Flag-tagged importin α3 (UniProt O00629); experiment: as above
Flag-tagged importin α7 [6] = molecular target: Flag-tagged importin α7 (UniProt O60684); experiment: as above
[7] = molecular target: Myc-tagged keratin 6A (KRT6A) (UniProt P02538); experiment: co-IP
Flag-tagged importin α5 [8] = molecular target: Flag-tagged importin α5 (UniProt P52294); experiment: co-IP
Flag-tagged importin α3 [9] = molecular target: Flag-tagged importin α3 (UniProt O00629); experiment: co-IP
Flag-tagged importin α7 [10] = molecular target: Flag-tagged importin α7 (UniProt O60684); experiment: co-IP

Myc-tagged keratin 6A (KRT6A) (from UniProt P02538 1-564)
binding [1]: binds
binding [2]: binds
binding [3]: binds
binding (Flag-tagged importin α5 [4]): no binding
binding (Flag-tagged importin α3 [5]): no binding
binding (Flag-tagged importin α7 [6]): no binding

nucleoprotein (NP) made in cells infected with WSN (H1N1) virus (from UniProt P15682 1-498)
binding [7]: binds

nucleoprotein (NP) of A/WSN/1933 (H1N1) virus, untagged, from pCAGGS (from UniProt P15682 1-498)
binding (Flag-tagged importin α5 [8]): binds
binding [7]: binds
binding (Flag-tagged importin α3 [9]): binds
binding (Flag-tagged importin α7 [10]): binds

polymerase basic protein 1 (PB1) made in cells infected with WSN (H1N1) virus (from UniProt P03430 1-757)
binding [7]: binds

polymerase basic protein 1 (PB1) of A/WSN/1933 (H1N1) virus, untagged, from pCAGGS (from UniProt P03430 1-757)
binding [7]: binds

polymerase basic protein 2 (PB2) made in cells infected with WSN (H1N1) virus (from UniProt P03427 1-759)
binding [7]: binds

polymerase basic protein 2 (PB2) of A/WSN/1933 (H1N1) virus, untagged, from pCAGGS (from UniProt P03427 1-759)
binding [7]: binds
